45 compounds from paper PMC4336329 (PLoS ONE, 2015) can be followed below.

Screen size: about 310,000 compounds; about 14,000 (4.5%) showed an effect of 50% or more. Effects have a minus sign here. Some of the results follow.
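Further: peak tail current of the secondary pulse compared with the same well before compound.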

The target of the assay is human ether-à-go-go-related gene (hERG) potassium channel (human, UniProt Q12809). Nature of the assay: primary screen, population patch clamp on CHO cells stably expressing hERG.
Chain of human ether-à-go-go-related gene (hERG) potassium channel (Q12809 whole entry, looked up): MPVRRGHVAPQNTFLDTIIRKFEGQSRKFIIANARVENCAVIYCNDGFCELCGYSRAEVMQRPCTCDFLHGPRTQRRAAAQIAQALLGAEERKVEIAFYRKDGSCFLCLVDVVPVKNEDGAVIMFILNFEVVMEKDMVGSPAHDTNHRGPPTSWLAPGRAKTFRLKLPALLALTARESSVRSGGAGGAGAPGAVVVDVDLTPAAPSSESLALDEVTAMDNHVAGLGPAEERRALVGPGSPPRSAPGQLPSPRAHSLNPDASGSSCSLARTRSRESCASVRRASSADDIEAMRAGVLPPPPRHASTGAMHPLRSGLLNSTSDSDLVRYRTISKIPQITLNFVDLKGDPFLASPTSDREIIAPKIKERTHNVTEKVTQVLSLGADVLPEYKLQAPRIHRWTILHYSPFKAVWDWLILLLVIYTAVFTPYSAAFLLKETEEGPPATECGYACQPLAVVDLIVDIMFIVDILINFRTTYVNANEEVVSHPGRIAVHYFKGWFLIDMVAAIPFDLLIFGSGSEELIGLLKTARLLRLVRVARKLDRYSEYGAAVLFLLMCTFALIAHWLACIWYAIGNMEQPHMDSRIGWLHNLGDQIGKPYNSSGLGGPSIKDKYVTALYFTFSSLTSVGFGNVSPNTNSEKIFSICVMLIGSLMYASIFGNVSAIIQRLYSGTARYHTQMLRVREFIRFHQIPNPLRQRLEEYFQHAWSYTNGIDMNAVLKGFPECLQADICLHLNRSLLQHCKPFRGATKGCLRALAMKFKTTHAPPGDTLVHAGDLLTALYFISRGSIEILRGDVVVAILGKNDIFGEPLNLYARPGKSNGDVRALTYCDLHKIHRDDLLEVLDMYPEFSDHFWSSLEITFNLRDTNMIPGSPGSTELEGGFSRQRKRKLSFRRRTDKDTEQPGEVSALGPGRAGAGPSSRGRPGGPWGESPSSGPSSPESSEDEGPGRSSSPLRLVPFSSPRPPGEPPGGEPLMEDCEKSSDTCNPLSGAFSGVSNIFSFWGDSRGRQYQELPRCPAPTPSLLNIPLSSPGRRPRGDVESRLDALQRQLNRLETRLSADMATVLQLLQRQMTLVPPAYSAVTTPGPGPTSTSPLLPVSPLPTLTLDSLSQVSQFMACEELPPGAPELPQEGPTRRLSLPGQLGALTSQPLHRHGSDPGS
On to `COc1cc(C)c(Cl)cc1S(=O)(=O)NCc1ccco1`, for which the “hERG current change (%, negative = inhibition) at 10uM” value turned out to be 2.33%. The same measure for `O=C1CC(C(=O)O)S/C(=N\NC(=O)c2ccccc2)N1` (stereo not drawn): -1.06%. Next, `COc1ccc(N2C(=O)/C(=C/c3ccc(C)o3)C(=O)NC2=S)c(OC)c1`: 19.2%; `CCOc1c(N2CCCCC2)c(=O)c1=O`: 0.507%; `Cc1ccc2c(c1)N(CC(=O)N1CCCCC1)C(=O)C(C)O2` (stereo not drawn): 11.9%. The same measure for `Cc1cc2ncn(CC3CC3(Cl)Cl)c2cc1C` (stereo not drawn): -12.8%; for `Cc1cc(SCn2nnc3ccccc3c2=O)nc2ccccc12`: 12.4%.

For `CCOc1cc(/C=N\NC(=O)c2ccc(NC(=O)C(C)(C)C)cc2)ccc1OC(=O)c1ccc(C)cc1`, the “hERG current change (%, negative = inhibition) at 10uM” value is 11.8%. In the case of `CCn1c(SCC(=O)O)nnc1-c1cccnc1`, the “hERG current change (%, negative = inhibition) at 10uM” value was found to be 7.11%.

Turning to `O=C(O)c1ccc2c(c1)C(=O)N(c1cccc(-c3nc4ccccc4s3)c1)C2=O`, the “hERG current change (%, negative = inhibition) at 10uM” value is reported as 5.79%. The same measure for `CCOC(=O)Cc1csc(NC(=O)CSc2nnc(-c3ccncc3)o2)n1`: 7.63%; for `O=C(O)C#Cc1cccc2ccccc12`: 29.8%. `O=C(CN(Cc1ccc(F)cc1)S(=O)(=O)c1ccccc1)N1CCCCC1`: the “hERG current change (%, negative = inhibition) at 10uM” value was -26.8%.

Regarding `O=C(NCc1cccnc1)Nc1ccc(Br)cc1Cl`, the “hERG current change (%, negative = inhibition) at 10uM” value was found to be 2.79%.

In the case of `COc1ccccc1N(C(=O)c1ccco1)C(C(=O)NC1CCCCC1)c1cc(OC)c(OC)c(OC)c1` (stereo not drawn), the “hERG current change (%, negative = inhibition) at 10uM” value is reported as -9.89%. Next, `CCN(CC)c1ccc(-c2n[nH]c(=S)n2-c2ccccc2C)cc1`: 12.4%; `Cc1ccc(NC(=O)CCC(=O)OCC(=O)c2ccc(Oc3ccc([N+](=O)[O-])cc3)cc2)cc1`: 13.1%; `Cc1cc(C(=O)CSc2n[nH]c(N)n2)c(C)n1-c1cccc(F)c1`: -26.3%.

With `COc1ccc(C(=O)[C@H]2[C@H]3C(=O)N(c4ccccc4)C(=O)[C@H]3C3C=CC=NN32)cc1` (stereo partly drawn), the “hERG current change (%, negative = inhibition) at 10uM” value was 4.94%. Next, `Cc1cc(=O)[nH]c2c(C)c(N)ccc12`: 6.03%; `CC(C)NC(=O)C1=NN(c2ccccc2)C(=O)CC1`: 24.3%; `CCC(C)c1ccccc1NC(=O)c1[nH]c(C)c(C(C)=O)c1C` (stereo not drawn): -2.59%. Next, `CC(C)(C)NC(=O)C(c1ccncc1)N(C(=O)CNC(=O)c1ccco1)c1ccc2c(c1)OCO2` (stereo not drawn): 9.79%; `CCOc1nc(-c2ccccc2O)nc2ccccc12`: 2.42%.

Consider `CCCCN(C)CCCNC(=O)CC1Oc2ccccc2NC1=O` (stereo not drawn), for which the “hERG current change (%, negative = inhibition) at 10uM” value is recorded as -5.89%. The same measure for `Cc1nnc(SCC(=O)Nc2nnc(SCc3cccc(Br)c3)s2)s1`: 6.06%. Next, `COCCCN=C1NN=C(c2cc(C)n(-c3ccccc3F)c2C)CS1`: -17.1%; `C=CCOC(=O)C1=C(C)NC(=S)C(C#N)(CC=C)C1c1ccccc1Cl` (stereo not drawn): 8.99%; `COc1ccc(Br)cc1C(=O)Nc1ccccc1-c1ccccc1`: -2.5%. Next, `C=CCc1cccc2cc(C(=O)N(CC)CC)c(=O)oc12`: -6.47%; `CCO.CSc1sc(C)cc1C1C(C#N)=C(N)N(c2cccnc2)C2=C1C(=O)CC(C)(C)C2` (stereo not drawn): -42.3%; `COc1cccc(-c2nnc(SCC(=O)Nc3ccc(S(N)(=O)=O)cc3)n2C)c1`: -12.8%.

`CC(=O)c1ccccc1OC(=O)COc1ccc(Cl)cc1C`: the “hERG current change (%, negative = inhibition) at 10uM” value was determined as 17.1%. The same measure for `O=S(=O)(Nc1c(S(=O)(=O)c2ccccc2)c2nc3ccccc3nc2n1C1CCCCC1)c1ccccc1`: -8.87%; for `S=C1NCN(Cc2cccnc2)CN1`: 14.2%. Next, `CCOc1cc(/C=N/NC(=O)C(=O)NCC2CCCO2)ccc1OCC(=O)N1CCOCC1` (stereo not drawn): 3.3%; `Cc1cc(C)n2c(nc3ccccc32)c1C(=O)NN`: 4.99%; `CCOC(=O)CSc1ncc(OC)c(Sc2ccc(Cl)cc2)n1`: 3.37%.

`O=C(CN(Cc1ccccc1Cl)C(=O)CNS(=O)(=O)c1ccc(F)cc1)NCC1CCCO1` (stereo not drawn): the “hERG current change (%, negative = inhibition) at 10uM” value is listed as -10.4%. `Cc1ccc(S(=O)(=O)NCC(=O)OCC(=O)NCc2ccc(F)cc2)cc1`: the “hERG current change (%, negative = inhibition) at 10uM” value was -18.9%.

For `COC(=O)c1ccccc1C(=O)N1CC(O)CO1` (stereo not drawn), the “hERG current change (%, negative = inhibition) at 10uM” value is on record as 16.5%. Next, `Cc1cc(C)c2nc(N3CCC(C(=O)NCCCN4CC(C)CC(C)C4)CC3)sc2c1` (stereo not drawn): -71.8%. On to `COc1ccc([C@H]2CC(=O)C=C(c3cccc(CO)c3)C2)cc1OC`, for which the “hERG current change (%, negative = inhibition) at 10uM” value is -63.6%. The same measure for `CCNS(=O)(=O)c1ccc(NC(=O)c2cncc(Br)c2)cc1`: -15.3%; for `CCOc1ccc(CCNC(=O)CSc2nn(-c3ccc(C)c(Cl)c3)c(=S)s2)cc1OCC`: 10.9%.
